Measurements: the supplement of paper PMC3334620
In all, about 33,000 sequences were measured (“E-score (-0.5 to 0.5)”: median about -0.017, highest 2% from about 0.3 on). The list shows a part of the results.

Target: T1, Sut1 (UniProt P53032)
T1 sequence: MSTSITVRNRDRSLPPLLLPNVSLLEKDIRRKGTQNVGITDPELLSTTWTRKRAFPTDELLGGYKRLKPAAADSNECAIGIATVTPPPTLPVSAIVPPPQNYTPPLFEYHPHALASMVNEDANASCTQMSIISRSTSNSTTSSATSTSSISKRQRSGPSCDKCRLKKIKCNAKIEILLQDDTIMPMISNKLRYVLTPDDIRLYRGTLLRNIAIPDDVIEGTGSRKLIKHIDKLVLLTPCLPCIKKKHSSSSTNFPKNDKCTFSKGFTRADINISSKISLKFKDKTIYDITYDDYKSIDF
Experiment: PBM E-score (8-mer binding enrichment) (E-score (-0.5 to 0.5)); higher = stronger / more preferred TF binding; most listed sequences are background and not binding sites
Conditions: protein concentration: 200 nM; construct: GST-full length
How it was run: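 Using PURExpress in vitro transcription/translation, GST-tagged yeast transcription factors were made in full-length or DNA-binding-domain form. These were applied at about 100-200 nM to double-stranded universal all-10-mer Agilent arrays, and bound protein was detected with fluorescent anti-GST. Scans were normalised with masliner before the Universal PBM Analysis Suite assigned E-scores to ungapped eight-base words pooled with their reverse complements.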

Compared with AAATATAC, GTTCTCCA is lower in “PBM E-score” value: 0.217 for the first, -0.0147 for the second.

Compared with AACTAGTT, CGTATGGA is lower in “PBM E-score” value: 0.119 for the first, 0.00471 for the second.

Compared with CGACCAAA, CCATATAG is lower in “PBM E-score” value: 0.118 for the first, -0.0893 for the second.

Compared with TAGGTGGA, GGATCATA is lower in “PBM E-score” value: 0.0312 for the first, -0.236 for the second.

Going from ATTAATGG to ATATACCA, the “PBM E-score” value falls from 0.193 to 0.0726.

First: GCTGAGTA
Second: GGCTAACA
The “PBM E-score” value of the first is lower: -0.204 for the first, -0.0749 for the second.

Compared with ACTCGTAC, ATTAACTA is higher in “PBM E-score” value: -0.0551 for the first, 0.195 for the second.

Compared with CCAACTGG, ATACCGAC is lower in “PBM E-score” value: -0.0126 for the first, -0.0668 for the second.

Compared with CCCCGATA, CTCGTGGC is lower in “PBM E-score” value: 0.15 for the first, -0.118 for the second.

Compared with GGTGAACC, CCCTTAAG is higher in “PBM E-score” value: -0.0876 for the first, -0.0359 for the second.

First: AGTCTATC
Second: AGTTAGAA
The “PBM E-score” value of the first is lower: -0.223 for the first, 0.133 for the second.

Going from CCGGTGTA to AACGGCCT, the “PBM E-score” value falls from 0.136 to -0.143.

First: CCTAAGTA
Second: CTAAAAGA
The “PBM E-score” value of the first is higher: 0.0747 for the first, 0.0411 for the second.

First: GCTTATCA
Second: ATCCGATC
The “PBM E-score” value of the first is lower: -0.0628 for the first, 0.18 for the second.

Compared with TATATTGA, ACAACATC is lower in “PBM E-score” value: 0.332 for the first, 0.128 for the second.

First: AATAACGC
Second: CGATCCAA
The “PBM E-score” value of the first is lower: -0.122 for the first, -0.0863 for the second.

Going from CTATGTAA to ATCGAATG, the “PBM E-score” value falls from 0.0452 to -0.067.

First: AGCACTAT
Second: GAGGAGTA
The “PBM E-score” value of the first is lower: -0.0409 for the first, -0.0389 for the second.

First: GCAACGTA
Second: CACACTTA
The “PBM E-score” value of the first is lower: -0.127 for the first, 0.115 for the second.

Compared with AGGCCTGA, AGTGGCTG is higher in “PBM E-score” value: -0.158 for the first, -0.0943 for the second.

First: ACGTTCAT
Second: GGGCCAGA
The “PBM E-score” value of the first is higher: 0.0519 for the first, -0.158 for the second.

Going from GACACCCA to AAGAATCT, the “PBM E-score” value rises from -0.118 to -0.016.

Going from GATCTCCA to ACTCTTAG, the “PBM E-score” value falls from -0.0913 to -0.21.

Going from GAACCAAC to GATATCGA, the “PBM E-score” value falls from 0.064 to 0.0354.

First: ATCCGCCA
Second: GATACGAC
The “PBM E-score” value of the first is lower: -0.133 for the first, 0.0584 for the second.

First: GGCTTCCC
Second: AGGTCGAT
The “PBM E-score” value of the first is lower: -0.108 for the first, 0.0792 for the second.

Compared with GTGCCTTA, GTTTAACA is higher in “PBM E-score” value: -0.122 for the first, -0.00835 for the second.

Going from AGTACCTC to AGTGATAC, the “PBM E-score” value rises from -0.189 to 0.0417.

Compared with ATGTCTAA, GAACAGGA is lower in “PBM E-score” value: 0.0635 for the first, -0.116 for the second.

Going from CAAGTTGC to CCTCCACA, the “PBM E-score” value falls from 0.0786 to -0.161.

Going from GGTTCCCA to GGAATGAC, the “PBM E-score” value rises from -0.185 to 0.0694.

First: CGCCGTTA
Second: AAATCAGT
The “PBM E-score” value of the first is lower: -0.0973 for the first, 0.0371 for the second.

Going from ATTGGAGC to ATAACCAC, the “PBM E-score” value falls from -0.0294 to -0.0445.

Going from GTCACGAC to CCCAACAG, the “PBM E-score” value falls from -0.0628 to -0.21.

Going from ACGTTAGA to CAGACGAC, the “PBM E-score” value falls from -0.00513 to -0.213.

Compared with CAAACGCC, AAGTCACA is higher in “PBM E-score” value: -0.15 for the first, -0.0682 for the second.

Going from GAACTCCC to ACTTTATC, the “PBM E-score” value rises from 0.0319 to 0.151.

First: GGAGCTTA
Second: GGGCCTCA
The “PBM E-score” value of the first is higher: 0.21 for the first, -0.224 for the second.

Compared with ACCGACTA, AGCTGCAA is lower in “PBM E-score” value: -0.0779 for the first, -0.122 for the second.

Going from GGGTGGAC to GACCCCGA, the “PBM E-score” value rises from -0.153 to 0.0897.

Going from CGATTTGA to CTAATTGC, the “PBM E-score” value rises from 0.0307 to 0.146.

Going from CAGCGCCC to GGGTCTCA, the “PBM E-score” value falls from -0.26 to -0.276.

Compared with GTCGGCAA, CCTGTTGC is higher in “PBM E-score” value: -0.104 for the first, -0.0841 for the second.
